# The other results are listed elsewhere or left out.
# Legend:
# Assay in all cases: glycan array binding signal (z-score within array); higher = stronger binding
# Details in all cases: glycan notation: IUPAC condensed, linker removed; mutation: E227A
# [1] = molecular target: Neu5Ac(a2-6)Gal(b1-4)GlcNAc(b1-2)Man(a1-3)[GlcNAc(b1-4)][Neu5Ac(a2-6)Gal(b1-4)GlcNAc(b1-2)Man(a1-6)]Man(b1-4)GlcNAc(b1-4)GlcNAc
# In short: (§1)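 Columns mapping to the same glycan were averaged after glycan names were converted to IUPAC-condensed notation. The data come from 3228 arrays in the Consortium for Functional Glycomics database, limited to those with an available protein sequence. Binding is reported as a within-array Z-score averaged across arrays of one protein sequence and across linkers.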
# [2] = molecular target: Neu5Ac(a2-6)Gal(b1-4)GlcNAc(b1-2)Man(a1-3)[Man(a1-6)]Man(b1-4)GlcNAc(b1-4)GlcNAc
# In short: as §1
# [3] = molecular target: Neu5Ac(a2-6)Gal(b1-4)GlcNAc(b1-2)Man(a1-3)[Neu5Ac(a2-3)Gal(b1-4)GlcNAc(b1-2)Man(a1-6)]Man(b1-4)GlcNAc(b1-4)GlcNAc
# In short: as §1
# [4] = molecular target: Neu5Ac(a2-6)Gal(b1-4)GlcNAc(b1-2)Man(a1-3)[Neu5Ac(a2-6)Gal(b1-4)GlcNAc(b1-2)Man(a1-6)]Man(b1-4)GlcNAc(b1-4)GlcNAc
# In short: as §1
# [5] = molecular target: Neu5Ac(a2-6)Gal(b1-4)GlcNAc(b1-2)Man(a1-3)[Neu5Ac(a2-6)Gal(b1-4)GlcNAc(b1-2)Man(a1-6)]Man(b1-4)GlcNAc(b1-4)[Fuc(a1-6)]GlcNAc
# In short: as §1
# [6] = molecular target: Neu5Ac(a2-6)Gal(b1-4)GlcNAc(b1-2)Man(a1-6)Man(b1-4)GlcNAc(b1-4)GlcNAc
# In short: as §1
# [7] = molecular target: Neu5Ac(a2-6)Gal(b1-4)GlcNAc(b1-2)Man(a1-6)[Gal(b1-4)GlcNAc(b1-2)Man(a1-3)]Man(b1-4)GlcNAc(b1-4)GlcNAc
# In short: as §1
# [8] = molecular target: Neu5Ac(a2-6)Gal(b1-4)GlcNAc(b1-2)Man(a1-6)[GlcNAc(b1-2)Man(a1-3)]Man(b1-4)GlcNAc(b1-4)GlcNAc
# In short: as §1
# [9] = molecular target: Neu5Ac(a2-6)Gal(b1-4)GlcNAc(b1-2)Man(a1-6)[Man(a1-3)]Man(b1-4)GlcNAc(b1-4)GlcNAc
# In short: as §1
# [10] = molecular target: Neu5Ac(a2-6)Gal(b1-4)GlcNAc(b1-2)[Neu5Ac(a2-6)Gal(b1-4)GlcNAc(b1-4)]Man(a1-3)[GlcNAc(b1-4)][Neu5Ac(a2-6)Gal(b1-4)GlcNAc(b1-2)[Neu5Ac(a2-6)Gal(b1-4)GlcNAc(b1-6)]Man(a1-6)]Man(b1-4)GlcNAc(b1-4)GlcNAc
# In short: as §1
# [11] = molecular target: Neu5Ac(a2-6)Gal(b1-4)GlcNAc(b1-2)[Neu5Ac(a2-6)Gal(b1-4)GlcNAc(b1-4)]Man(a1-3)[GlcNAc(b1-4)][Neu5Ac(a2-6)Gal(b1-4)GlcNAc(b1-4)Man(a1-6)]Man(b1-4)GlcNAc(b1-4)GlcNAc
# In short: as §1
# [12] = molecular target: Neu5Ac(a2-6)Gal(b1-4)GlcNAc(b1-2)[Neu5Ac(a2-6)Gal(b1-4)GlcNAc(b1-6)]Man(a1-6)[Neu5Ac(a2-6)Gal(b1-4)GlcNAc(b1-2)Man(a1-3)][GlcNAc(b1-4)]Man(b1-4)GlcNAc(b1-4)GlcNAc
# In short: as §1
# [13] = molecular target: Neu5Ac(a2-6)Gal(b1-4)GlcNAc(b1-3)Gal(b1-3)GlcNAc
# In short: as §1
# [14] = molecular target: Neu5Ac(a2-6)Gal(b1-4)GlcNAc(b1-3)Gal(b1-4)GlcNAc
# In short: as §1
# [15] = molecular target: Neu5Ac(a2-6)Gal(b1-4)GlcNAc(b1-3)Gal(b1-4)GlcNAc(b1-2)Man(a1-3)[Neu5Ac(a2-6)Gal(b1-4)GlcNAc(b1-3)Gal(b1-4)GlcNAc(b1-2)Man(a1-6)]GalNAc
# In short: as §1
# [16] = molecular target: Neu5Ac(a2-6)Gal(b1-4)GlcNAc(b1-3)Gal(b1-4)GlcNAc(b1-3)Gal(b1-4)GlcNAc
# In short: as §1
# [17] = molecular target: Neu5Ac(a2-6)Gal(b1-4)GlcNAc(b1-3)Gal(b1-4)GlcNAc(b1-3)Gal(b1-4)GlcNAc(b1-2)Man(a1-3)[Neu5Ac(a2-6)Gal(b1-4)GlcNAc(b1-3)Gal(b1-4)GlcNAc(b1-3)Gal(b1-4)GlcNAc(b1-2)Man(a1-6)]GalNAc
# In short: as §1
# [18] = molecular target: Neu5Ac(a2-6)Gal(b1-4)GlcNAc(b1-3)Gal(b1-4)GlcNAc(b1-3)GalNAc
# In short: as §1
# [19] = molecular target: Neu5Ac(a2-6)Gal(b1-4)GlcNAc(b1-3)Gal(b1-4)GlcNAc(b1-3)[Neu5Ac(a2-6)Gal(b1-4)GlcNAc(b1-3)Gal(b1-4)GlcNAc(b1-6)]GalNAc
# In short: as §1
# [20] = molecular target: Neu5Ac(a2-6)Gal(b1-4)GlcNAc(b1-3)Gal(b1-4)GlcNAc(b1-6)[Gal(b1-3)]GalNAc
# In short: as §1
# [21] = molecular target: Neu5Ac(a2-6)Gal(b1-4)GlcNAc(b1-3)Gal(b1-4)[Fuc(a1-3)]GlcNAc(b1-3)Gal(b1-4)[Fuc(a1-3)]GlcNAc
# In short: as §1
# [22] = molecular target: Neu5Ac(a2-6)Gal(b1-4)GlcNAc(b1-3)GalNAc
# In short: as §1
# [23] = molecular target: Neu5Ac(a2-6)Gal(b1-4)GlcNAc(b1-3)[Neu5Ac(a2-6)Gal(b1-4)GlcNAc(b1-6)]GalNAc
# In short: as §1
# [24] = molecular target: Neu5Ac(a2-6)Gal(b1-4)GlcNAc(b1-6)GalNAc
# In short: as §1
# [25] = molecular target: Neu5Ac(a2-6)Gal(b1-4)GlcNAc(b1-6)[Gal(b1-3)GlcNAc(b1-3)]Gal(b1-4)Glc
# In short: as §1
# [26] = molecular target: Neu5Ac(a2-6)Gal(b1-4)GlcNAc(b1-6)[Gal(b1-3)]GalNAc
# In short: as §1
# [27] = molecular target: Neu5Ac(a2-6)Gal(b1-4)GlcNAc6S
# In short: as §1
# Neu5Ac(a2-6)GalNAc = molecular target: Neu5Ac(a2-6)GalNAc
# In short: as §1
# [28] = molecular target: Neu5Ac(a2-6)GalNAc(b1-4)GlcNAc
# In short: as §1
# [29] = molecular target: Neu5Ac(a2-6)GalNAc(b1-4)GlcNAc6S
# In short: as §1
# [30] = molecular target: Neu5Ac(a2-6)GlcNAc(b1-4)GlcNAc
# In short: as §1
binder,measurement,setting,value
"Epa1-NP-mutant-E227A (Candida glabrata), Q6VBJ0 (protein) MILNPALFLNKCVCIYTTLILLLLTNGGYATSSNDISLASKDPTTFPLGCSPDITTPKKGLSMELYSYDFRKKGSYPCWDAAYLDPNYPRTGYKSHRLLAKVDGVTGNINFYYHATKGCTPQLGHLPASYNYPKPLTMTNFTMLLYGYFRPKVTGFHTFTISADDLLFVNFGAGNAFDCCRRDSSADHFGNYQAYAIWGSKTAKDELTVHLDAGVYYPIRLFYNNRAYDGALSFTFKTESNENTVSDFSEYFFSLDDTEEGCPGLISYDSSCASVKTSKIIGIDYHTETPNENLVPITKTIYHLGIPCTGTTTTPLCGSGFYDPLANKCVTINTSSTSSVTKTTSHTTSKEVSFHSSISSQKTLIPKSIPSPYGPIKSQSIPTEMETSSEISSSEYAFSDVISTPSHSPYTKKHSSLNSSSYTSTVIHSLTSYSISQGIFSTSLSEQNITSKSSTDKFSTATSMSNNITQSSIIISQFSTNNENYTTTSMHTSSDKISTETLNNSISTTTSILFSNSSTILKNNTTIISSDKDTHYHPVNPTIVCSTNKTEIICASITQPSISNSNNHWSSSVLKFNSTTVRSTLPSSAGSNETSINVPFSSSTESNTSTSSTSTSNSKMVRSTLPSSAGSNETSISVPFSSSTESNTSTSSTSTSNSKMVRSTLPSSAGSNETSINVPFSSSTESNTSTSSTSTSNSKTVRSTPFSSAGIIMTSLSQRNNKSASSYASSNSKCYNTADSCRKVHSTPSYLLTSSYTSEGVDYDCSLVSTKLKINDTNCVNNKHTTKSCLKTSVTTTIPTLEIKTARKSSSNTIGLHSYPTSSPNKSISSAPIIGYISSFKTIKTASPSYQTSDLTTITTITSLNNPGSTAVENTHESNDKSRKTSSNDISSKHSVIKETKDAVESSNKSHQTNTLKCSSIIIASSSHNSYESLGGTTLTLTLSKVYSPQNNDTLPFLEISEVNPSRTVLPESSKMMQYLTSTEERNKTARNTIATNIVSISTFHFEGEGNAIRMGYTQLLLMLIGIIVMNIGT",glycan array binding signal (z-score),[1],-0.193
same,glycan array binding signal (z-score),[2],-0.176
same,glycan array binding signal (z-score),[3],-0.213
same,glycan array binding signal (z-score),[4],-0.199
same,glycan array binding signal (z-score),[5],-0.201
same,glycan array binding signal (z-score),[6],-0.212
same,glycan array binding signal (z-score),[7],-0.191
same,glycan array binding signal (z-score),[8],-0.166
same,glycan array binding signal (z-score),[9],-0.2
same,glycan array binding signal (z-score),[10],-0.174
same,glycan array binding signal (z-score),[11],-0.205
same,glycan array binding signal (z-score),[12],-0.204
same,glycan array binding signal (z-score),[13],-0.214
same,glycan array binding signal (z-score),[14],-0.202
same,glycan array binding signal (z-score),[15],-0.195
same,glycan array binding signal (z-score),[16],-0.198
same,glycan array binding signal (z-score),[17],-0.169
same,glycan array binding signal (z-score),[18],-0.207
same,glycan array binding signal (z-score),[19],-0.173
same,glycan array binding signal (z-score),[20],0.553
same,glycan array binding signal (z-score),[21],-0.205
same,glycan array binding signal (z-score),[22],-0.179
same,glycan array binding signal (z-score),[23],-0.189
same,glycan array binding signal (z-score),[24],-0.161
same,glycan array binding signal (z-score),[25],-0.078
same,glycan array binding signal (z-score),[26],0.772
same,glycan array binding signal (z-score),[27],0.032
same,glycan array binding signal (z-score),Neu5Ac(a2-6)GalNAc,-0.216
same,glycan array binding signal (z-score),[28],-0.222
same,glycan array binding signal (z-score),[29],-0.185
same,glycan array binding signal (z-score),[30],-0.214

# — the supplement of paper PMC8728848
